Measurements: publication PMC10468942, “A Fluorescent Probe as a Lead Compound for a Selective α-Synuclein PET Tracer: Development of a Library of 2-Styrylbenzothiazoles and Biological Evaluation of [^18F]PFSB and [^18F]MFSB” (ACS Omega, 2023)
For part of its entries the source gives two or more results. The other results are left out here. There may be further records. The records of an entry appear to be repeats (runs, samples, wells or individuals).

Biological target: T1, αSYN fibrils (Homo sapiens, UniProt P37840)
T1 construct: cloning of the DNA construct encoding full-length αSYN into the pET-22b vector; made in house; host or cells: Escherichia coli BL21
Assay: [^3H]PiB competition binding assay on αSYN fibrils
Details: nonmethylated compounds, Table 1; two values in a cell = single determinations; a: mean Ki ± SEM of three data points; b: single data point
Method: Following the cloning of the DNA construct encoding full-length αSYN into the pET-22b vector and its transformation into BL21 cells, the expression of human αSYN from a prokaryotic host was induced overnight in Escherichia coli at 20 °C with 0.5 mM IPTG. The cells were harvested by centrifugation, resuspended in 20 mM Tris-HCl pH 7.6, 25 mM NaCl and 1× complete protease inhibitor (Roche, Basel, Switzerland), and lysed by sonication. […] Anion exchange chromatography (HiTrap Q, GE Healthcare, Chicago, Illinois) was used to trap the produced αSYN, which was eluted with NaCl 0.1 M over 20 column volumes. Fractions containing αSYN were concentrated and further purified through a Superdex 75 SEC column equilibrated with PBS. […] A 4 mg/mL solution of αSYN in 20 mM K3PO4 pH 9.1 was placed in an orbital shaker at 37 °C, 1000 rpm for 5 days to prepare P91s. The assemblies were either sonicated with cycles of 20 s on and 10 s off at 50% amplitude (Q800R3, Qsonica) for a total of 10 min or directly aliquoted in volumes of 10 μL each stored at −80 °C until use. […]
Plates were incubated on a shaker (MaxQ 6000, Thermo Fisher Scientific, Inc., Marietta, OH) at 50 rpm for 2 h at 37 °C, covered by removable sealing tapes (PerkinElmer, Waltham, MA). Vacuum filtration and read-out were performed as previously reported.[17] […]

Ki: 134 nM and 12.1 nM [one cell]
SMILES: c1ccc2sc(-c3ccc(N4CCCCC4)cc3)nc2c1 [13a, 2-(4-(Piperidin-1-yl)phenyl)benzo[d]thiazole]
